# From PubChem BioAssay AID1671189 (National Center for Advancing Translational Sciences (NCATS), 2021)
# Screen size: about 1,100 compounds; about 70 (6%) were called active. This list was built around the results that the source calls inconclusive (neither active nor inactive); the mix of calls is not that of the screen. The call rests on the fitted dose curve; in most records, active means well fitted curve in the direction sought with a large enough effect; inconclusive means small, poorly fitted or top-dose-only effect, or another doubt; inactive means no such curve, though single readings can be large or run the other way. Potencies beside an inconclusive call are fits to weak or partial responses and may not hold up.
# Target: Polyunsaturated fatty acid lipoxygenase ALOX12 (Homo sapiens) (UniProt P18054)
# Experiment: Confirmatory qHTS assay for inhibitors of human arachidonate 12S-lipoxygenase (ALOX12): Round 2
# Conditions: purified human 12-LOX, xylenol orange absorbance; activity change, negative = inhibition: at 125 µM (top of the series)
# In short: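 Activity was measured as hydroperoxide formation via ferrous/xylenol orange, taking the 573 nm to 405 nm absorbance ratio. Reaction: 40 uM arachidonic acid, 30 min at room temperature, after 15 min compound preincubation with 150 nM enzyme, pH 7.0 Hepes buffer.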
# On the % scale 0 is the no-effect control and ±100 the full control effect; potency means the concentration at half of the fitted maximal effect.
# Sequence of UniProt P18054 (P18054 whole entry, looked up): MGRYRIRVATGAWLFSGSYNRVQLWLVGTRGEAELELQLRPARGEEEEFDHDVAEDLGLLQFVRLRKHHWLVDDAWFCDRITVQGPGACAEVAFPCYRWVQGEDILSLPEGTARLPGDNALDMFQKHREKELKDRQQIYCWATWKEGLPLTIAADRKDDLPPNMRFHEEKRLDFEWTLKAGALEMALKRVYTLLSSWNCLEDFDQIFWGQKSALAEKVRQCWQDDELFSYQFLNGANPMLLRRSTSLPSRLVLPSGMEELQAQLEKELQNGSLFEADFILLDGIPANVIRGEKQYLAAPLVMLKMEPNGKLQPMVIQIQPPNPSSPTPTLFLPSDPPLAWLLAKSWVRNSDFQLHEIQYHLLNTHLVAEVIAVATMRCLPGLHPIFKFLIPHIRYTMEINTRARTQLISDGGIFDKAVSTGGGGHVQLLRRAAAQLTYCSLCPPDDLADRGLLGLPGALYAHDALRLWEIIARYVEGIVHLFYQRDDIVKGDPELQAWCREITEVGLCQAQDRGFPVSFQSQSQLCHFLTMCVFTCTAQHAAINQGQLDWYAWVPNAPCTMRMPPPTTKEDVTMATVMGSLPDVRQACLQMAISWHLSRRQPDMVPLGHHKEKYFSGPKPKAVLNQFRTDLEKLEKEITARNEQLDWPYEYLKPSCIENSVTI
SMILES,Potency,"activity change, negative = inhibition"
CCCCNc1oc(-c2cccc3ccccc23)nc1C#N,active: 19.3 µM,
O=Cc1ccc(-c2cccc(O)c2)cc1,"inconclusive: 56.9 µM [inhibitor, partial curve, poor fit]",
CCCCCNc1oc(-c2cccc3ccccc23)nc1C#N,"inconclusive: 21.7 µM [inhibitor, partial curve]",
CCOc1cccc(CN2CCC3(Cc4ccccc4CNC3=O)C2)c1 (stereo not given),inactive,
Cc1ccc(-c2cccc(CN)c2)cc1Cl,"inconclusive: 127 µM [inhibitor, partial curve, poor fit]",
COc1ccc(OC2CN(Cc3ccc(F)cc3)C2)cc1,"inconclusive: 114 µM [inhibitor, partial curve, poor fit]",
Cc1ccc(-c2ncc(C(=O)Nc3ccccc3Br)c(-c3ccncc3)n2)cc1,"inconclusive: 5.01 µM [inhibitor, partial curve, poor fit]",
COc1ccc(-c2cc(C(=O)NCC(C)C)c3c(C)nn(-c4ccccc4)c3n2)cc1,"inconclusive: 62.2 µM [inhibitor, partial curve, poor fit]",
COc1cc(CN2CCC3(Cc4ccccc4CNC3=O)C2)cc(OC)c1 (stereo not given),,inconclusive: -31.4% [inhibitor]
CCC(C)Cn1c(/C=C/c2ccccc2)nc2ccccc21 (stereo not given),inactive,
CN1CC(=O)N(C2CCNCC2)Cc2c1ncnc2N1CCCCC1,"inconclusive: 62.2 µM [inhibitor, partial curve]",
COc1ccc(N2CC3CCC(C2)N3C(C)=O)cc1,inactive,
O=C1NCc2ccccc2CC12CCN(Cc1ccccc1Cl)C2 (stereo not given),inactive,
COC(=O)[C@@H]1Cc2nc[nH]c2CN1C1CCOCC1,inactive,
COc1ccc(N2CC3CCC(C2)N3Cc2ccc(Cl)cc2)cc1,"inconclusive: 13.9 µM [inhibitor, partial curve, poor fit]",
CNCc1cccc(Oc2ccccc2)c1,"inconclusive: 71.7 µM [inhibitor, partial curve]",
CNc1oc(-c2ccc(Cl)c(Cl)c2)nc1C#N,inactive,
c1ccc(NCCN2CCCC2)cc1,inactive,
O=C1NCc2ccccc2CC12CCN(Cc1ccc([N+](=O)[O-])cc1)C2 (stereo not given),"inconclusive: 62.2 µM [inhibitor, partial curve, poor fit]",
Cc1ccc(-c2ccccc2CN)c(C)c1,inactive,
Cc1ccc(-c2ccc(CN)cc2)cc1Cl,"inconclusive: 160 µM [inhibitor, single point]",
O=[S+]([O-])(Nc1ccc(N2CCNCC2)cc1)c1ccc(NCc2ccc(Cl)cc2O)cc1,active: 21.7 µM,
Cc1cc(C(=O)NC2CCNCC2)c2c(C3CCNCC3)noc2n1,inactive,
O=C1NCc2ccccc2CC12CCN(Cc1ccc(Cl)cc1)CC2,inactive,
COc1ccc(-c2nc(C3CC3)nc3c2CN(C(=O)c2ccccc2OC)CC3)cc1,"inconclusive: 62.2 µM [inhibitor, partial curve, poor fit]",

SMILES,Potency,"activity change, negative = inhibition"
O=C(c1ccc2c(c1)OCO2)N1CCCC1c1nnc2n1CCNC2 (stereo not given),"inconclusive: 62.2 µM [inhibitor, partial curve]",
CCOc1ccc(CN2CCC(CO)(Cc3ccccc3Cl)CC2)cc1,"inconclusive: 11.2 µM [inhibitor, partial curve]",
COc1cccc(N2C(=O)NC(=NC3CCCCC3)C23CCCN(C(=O)c2ccccc2)C3)c1 (stereo not given),inactive,
O=C(C1CCCC1)N1CC2(CCCN(Cc3c[nH]c4ccccc34)C2)Cc2ccccc21 (stereo not given),"inconclusive: 49.4 µM [inhibitor, partial curve]",
O=C1NCc2ccccc2CC12CCCN2Cc1cccc(OC(F)(F)F)c1 (stereo not given),"inconclusive: 62.2 µM [inhibitor, partial curve]",
O=C(c1ccccc1)N1CCc2nc(C3CC3)nc(-c3ccc(Cl)cc3)c2C1,"inconclusive: 55.5 µM [inhibitor, partial curve]",
CN1CC(=O)N(C2CCCNC2)Cc2c(NC3CCC3)ncnc21 (stereo not given),inactive,
NCc1ccc(-c2cccc(Cl)c2)cc1,inactive,
CCOC(=O)c1ccc(NC(=O)c2c(NCc3sccc3C)sc3c2CCCCC3)cc1,"inconclusive: 34.9 µM [inhibitor, partial curve]",
COc1ccc(C(=O)N2CC(Oc3ccc4c(c3)OCO4)C2)cc1,inactive,
O=C1NCc2ccccc2CC12CCN(Cc1cccc(Br)c1)C2 (stereo not given),inactive,
CC(C)c1nc2c(c(-c3ccc(Cl)cc3)n1)CCN(Cc1ccsc1)CC2,"inconclusive: 49.4 µM [inhibitor, partial curve, poor fit]",
CC(=O)NCCC(=O)N1Cc2ccccc2CC2(CCCN2CC2CCNCC2)C1 (stereo not given),inactive,
CCC(CC)Nc1ncnc2c1CN(C1CCCNCC1)C(=O)CN2C (stereo not given),inactive,
O=C1Nc2ccccc2CN(C/C=C/c2ccccc2)C12CCNC2 (stereo not given),inactive,
COc1ccc(CN2Cc3[nH]cnc3C[C@H]2c2nc(-c3ccncc3)no2)cc1,inactive,
Cc1ccsc1-c1[nH]nc2ncc(-c3cccc(O)c3)nc12,"inconclusive: 31.6 µM [inhibitor, full curve]",
O=C(c1ccc(Cl)cc1)N1CC2(CCCN(Cc3ccccn3)C2)Cc2ccccc21 (stereo not given),inactive,
O=C1NCc2ccccc2CC12CCN(Cc1c(F)cccc1F)C2 (stereo not given),inactive,
C[S+](=O)([O-])N1CC2(CCN(C(=O)CCC(=O)O)C2)Cc2ccccc21 (stereo not given),"inconclusive: 87.9 µM [inhibitor, single point]",
O=C1NCc2ccccc2CC12CCN(Cc1ccc(Cl)o1)C2 (stereo not given),inactive,
COc1ccc(CN2CCC3(CC(c4cccc(C(F)(F)F)c4)=NO3)C2)cc1 (stereo not given),"inconclusive: 87.9 µM [inhibitor, single point]",
O=C1NCc2ccccc2CC12CCN(Cc1cccc(F)c1F)C2 (stereo not given),"inconclusive: 54.8 µM [inhibitor, partial curve]",
O=C(c1ccc(C(F)(F)F)cc1)N1CCCC2(CC(c3ccccc3)=NO2)C1 (stereo not given),"inconclusive: 9.87 µM [inhibitor, full curve]",
O=c1[nH]c(C2CCCN(Cc3ccc(-c4ccccc4)cc3)C2)nc2ccc(F)cc12 (stereo not given),"inconclusive: 49.4 µM [inhibitor, partial curve]",
